Among all 48,000 compounds or so, about 450 (0.94%) were called active. Another 19% or so got no clear call; they are omitted. Calls come from the whole dose curve; as a rule, active = well fitted inhibition curve with a large enough effect; inconclusive = small, poorly fitted or top-dose-only effect; inactive = no such curve, though single readings can be large or run the other way. Some of the results follow.
Assay: Primary qHTS for Identification of Small Molecule Inhibitors of Huntingtin Promoter Activity; note: nearly all actives have a fitted effect of over 50% in size
Conditions: HEK293 HTT promoter firefly luciferase reporter (activity 0% = vehicle and -100% = no light), 24 h; series mostly up to 57.5 µM; activity change, negative = inhibition: at the top concentration
Summary of the method: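 Quantitative HTS used concentration series of up to 57.5 uM final on HEK293 luciferase reporter cells, 24 h at 37 degrees C. Readout was Dual-Glo firefly luminescence.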

SMILES | activity change, negative = inhibition
COc1cccc2c1Oc1ncccc1N(C(=O)CCC(=O)NCCC(C)C)C2 | inactive: -4.6%
O=S(=O)(c1ccc(Cl)cc1)c1nc(-c2ccccc2Br)oc1NCc1ccccc1 | inactive: -27% [at 11.5 µM]
CCN1CCN(C(=O)c2ccc3c(c2)N(Cc2cccc(Cl)c2)C(=O)c2ccccc2S3=O)CC1 (stereo not given) | inactive: -4.79%
CCN(CC)CCCNc1cc(-c2ccccc2)nc(C)n1 | inactive: -8.79%
COc1ccc(-n2cc(C(=O)N(CCN(C)C)Cc3ccccc3)c3ccccc3c2=O)cc1 | inactive: -3.68%
COc1cc(C(=O)N(Cc2ccc(F)cc2)Cc2ccco2)cc(OC)c1OC | inactive: -17.5%
COc1ccc(Cn2c(=O)[nH]c3cc(C(=O)NCCC(C)C)ccc3c2=O)cc1 | inactive: 0.408%
COc1ccc(CNC(=O)CS(=O)Cc2nc(-c3ccc(OC)c(OC)c3)oc2C)cc1 (stereo not given) | inactive: 7.33%
CCn1c(C)c(C)c2cc(C(=O)NCCCN3CCCCC3C)ccc21 (stereo not given) | inactive: 2.9%
CCOC(=O)c1nc(Nc2ccc(OC)cc2)c2ccccc2n1 | inactive: -18.5%
Cc1ccccc1Nc1c(-c2cccc(O)c2)nc2ccc(Br)cn12 | inactive: -21.8%
CC(C)CCNC(=O)c1ccc(Cn2c(=O)c3cccn3c3cccnc32)cc1 | inactive: -12.3%
Cc1ccc(-c2nn(-c3cccc([N+](=O)[O-])c3)c3c2cnc2ccc(F)cc23)cc1 | inactive: 0%
Cc1cc2c(n1-c1ccc(C(=O)NCC(C)c3ccccc3)cc1)CCCC2 (stereo not given) | inactive: 8.46%
CCOc1ccc(CNC(=O)c2ccc3c(c2)sc2nc(-c4ccc(OC)cc4)cn23)cc1 | inactive: -18%
COc1cc(OC)c(NC(=O)CSC2=Nc3ccccc3N=C(c3ccc(F)cc3)C2)cc1Cl | inactive: 0.201%
COc1ccc(-n2c(=O)c3c(c4cc(OC)ccc4n3C)n(CC(=O)NCC3CCCO3)c2=O)cc1 (stereo not given) | inactive: -12.3%
COc1ccc(NC(=O)Cn2c(=O)n(-c3cccc(C)c3)c(=O)c3c2c2cc(C)ccc2n3C)cc1OC | inactive: -3.15%
C#CCSc1nc2sc3c(c2c(=O)n1-c1cccc(OC)c1)CCN(C(C)=O)C3 | inactive: -23.1%
CCOC(=O)c1ccc(-c2ccc(/C=C(\C#N)C(=O)Nc3c(C)cccc3Cl)o2)cc1 | inactive: 1.7%
COc1cc(Cl)c(NC(=O)c2cc(S(=O)(=O)N3CCOCC3)cn2C)c(OC)c1 | inactive: -0.465%
CCc1nn2c(-c3ccco3)ccnc2c1-c1ccc(F)cc1 | inactive: 31.4%
CC(C)(C)NC(=O)Cn1cc(S(=O)(=O)Cc2ccc(F)cc2)c2ccccc21 | inactive: -3.84%
COCCn1c(SCC(=O)c2ccc(OC)cc2)nc2cc(C(=O)NC3CCCC3)ccc2c1=O | inactive: -4.5%

SMILES | activity change, negative = inhibition
CCCOc1ccc(-c2nonc2NC(=O)COc2ccc(C)cc2)cc1OCCC | inactive: 1.51%
CC(=O)c1c(C)oc2c(Cl)cc(NS(=O)(=O)c3cc(C)c(C)cc3C)cc12 | inactive: -7.68% [at 11.5 µM]
Cc1ccc(S(=O)(=O)c2nnn(CC(=O)Nc3ccccc3C)c2N)cc1C | inactive: 0.916%
O=C(CCC1N=C2c3ccccc3N=C(SCc3ccccc3Cl)N2C1=O)NCc1cccs1 (stereo not given) | inactive: -11.8%
O=C(NCc1ccccc1F)C(=O)NCC(c1cccs1)S(=O)(=O)c1cccs1 (stereo not given) | inactive: -14.4%
CCOc1ccc(OCC)c(NC(=O)c2cnc3c(-c4ccccc4)c(C)nn3c2C)c1 | inactive: -12.9%
COC(=O)c1cc2oc(C)cc2n1Cc1cccc(Cl)c1 | inactive: -26.9%
Cc1ccc(-n2c(=O)c3c(c4cc(C)ccc4n3C)n(CC(=O)NCCC3=CCCCC3)c2=O)cc1 | inactive: 8.47%
O=c1c2oc3ccccc3c2n(Cc2cccc(Cl)c2)c(=O)n1Cc1ccc2c(c1)OCO2 | inactive: -23.5%
COc1ccccc1OCC(=O)NCC1(N2CCOCC2)CCCCC1 | inactive: -17.7%
O=C(NCc1cccc(Cl)c1)c1ccc(CS(=O)Cc2ccccc2Cl)o1 (stereo not given) | inactive: -27.2%
O=c1oc2c(F)cc(F)cc2cc1S(=O)(=O)c1ccc(F)cc1 | inactive: -21.1%
CCOc1ccc(N(CC)C(=O)c2cc3c(=O)oc4ccccc4c3s2)cc1 | inactive: -6.63%
NC(=O)c1ncn([C@@H]2O[C@H](CO)[C@@H](O)[C@@H]2O)c1N | inactive: 12.8%
Cc1ccn2c(=O)c(C(=O)Nc3ccc(F)c(C(F)(F)F)c3)cnc2c1 | inactive: 0.123%
CCOc1ccc(-c2nonc2NC(=O)c2oc3ccc(Cl)cc3c2C)cc1 | inactive: -12.4%
COc1cccc(NC(=O)c2oc3ccccc3c2NC(=O)COc2ccccc2C)c1 | inactive: 21.3%
COC(=O)c1ccccc1NC(=O)CCCn1nc(C)c2sc3ccccc3c2c1=O | inactive: -0.614%
COc1ccc(-c2nnn3c2nc(NCc2ccccc2)c2ccccc23)cc1 | inactive: 16.5%
CC1=C(C(=O)Nc2ccc(C)cc2C)C(CC(C)C)n2nc(SCc3ccccc3C)nc2N1 (stereo not given) | inactive: -6.33%
COc1ccc(-c2ccc(NS(=O)(=O)c3ccccc3)cc2)nn1 | inactive: -19.7%
CCOc1ccc(-c2cc(C(=O)NCc3ccc(OCC)c(OC)c3)[nH]n2)cc1 | inactive: -11.5%
O=c1c2sc3ccccc3c2n(Cc2ccc(F)cc2)c(=O)n1Cc1ccccc1 | inactive: -8.37%
CCc1cccc(CC)c1NC(=O)CCS(=O)(=O)c1ccc(Br)cc1 | inactive: -22.5%

SMILES | activity change, negative = inhibition
Cc1cc(C)n2nc(SCC(=O)Nc3ccc(O)cc3)nc2n1 | inactive: -6.28%
Cc1ccc(NC(=O)CSc2ncccc2C(=O)Oc2ccccc2Cl)cc1Cl | inactive: -16.2%
COc1cc(C)ccc1OCCSc1nc2ccc(NC(=O)c3ccc4c(c3)OCO4)cc2s1 | inactive: -28.7%
Cc1ccccc1-c1nc2c(c(SCc3cccc(Cl)c3)n1)Cc1c(CO)cnc(C)c1O2 | inactive: -12.2%
CCc1ccc(NC(=O)Cn2c(=O)n(CCCC(=O)NCc3ccccc3OC)c(=O)c3ccccc32)cc1 | inactive: -2.75%
COc1cc(-c2nc(Cn3nnc(C(=O)Nc4ccccc4C)c3C)c(C)o2)cc(OC)c1OC | inactive: -4.99%
Cn1c(CNc2ccc(C(=N)N)cc2)nc2cc(C(=O)N(CCC(=O)O)c3ccccn3)ccc21 | inactive: -1.98% [at 25.2 µM]
COc1ccc(C)cc1NC(=O)c1ccc2c(c1)N(Cc1cccc(Cl)c1)C(=O)c1ccccc1S2=O (stereo not given) | inactive: -1.95%
CNC1CCCN(c2c(F)cc3c(=O)c(C(=O)O)cn(C4CC4)c3c2OC)C1 (stereo not given) | inactive
Clc1cccc(N2CCN(c3nc4ccccc4c4nc(-c5cccnc5)nn34)CC2)c1 | inactive: 1.87%
CC(=O)N1c2ccc(S(=O)(=O)N3CCCCCC3)cc2CC1C(=O)NCc1cccc(F)c1 (stereo not given) | inactive: -16.4%
Cc1ccc(S(=O)(=O)c2nc(-c3cccs3)oc2SC(C)c2ccccc2)cc1 (stereo not given) | inactive: -19.1%
CCS(=O)(=O)N1CCc2cc(C(=O)N3CCN(c4ccccc4)CC3)ccc21 | inactive: -10.1%
CCOC(=O)c1noc2ncn(CC(=O)Nc3ccc(OC)c(Cl)c3)c(=O)c12 | inactive: -8.03%
Cc1cccc(NC(=O)CSc2nc(=O)n(CCN3CCOCC3)c3c2CCC3)c1C | inactive: -11.5%
CCCC(=O)NCc1nc2cccnc2n1Cc1ccc(F)cc1 | inactive: 1.17%
Cc1cccc(Cn2nnc3c(=O)[nH]c(C4CCN(C(=O)c5ccccc5F)CC4)nc32)c1 | inactive: -18%
C=CCN1C[C@H](C(=O)N(CCCN(C)C)C(=O)NCC)C[C@@H]2c3cccc4[nH]cc(c34)C[C@H]21 | inactive: 7.54%
Cc1ccc(NC(=O)Cn2c(=O)n(Cc3ccc4c(c3)OCO4)c(=O)c3ccc(C(=O)NC4CCCCC4)cc32)cc1 | inactive: -8.05%
CCOC(=O)c1ccc(NC(=O)Cc2coc3cc(C)cc(C)c23)cc1 | inactive: -9.26%
O=C(Nc1cc(-c2nc3ccccc3o2)ccc1Cl)c1cccc2c(Cl)cccc12 | inactive: 8.08%
COc1ccc(S(=O)(=O)NCc2cccn2Cc2cccc(C)c2)cc1OC | inactive: -18%
CCCCc1nn2c(=O)cc(COC(=O)c3ccccc3NC(=O)C3CCCCC3)nc2s1 | inactive: -18.6%
CCN(C(=O)CSc1nnc(C)n2c1cc1occc12)c1ccccc1 | inactive: 9.45%

SMILES | activity change, negative = inhibition
CCOc1ccc(NC(=O)c2cc3c(=O)n4cccc(C)c4nc3s2)cc1 | inactive: 10.7%
Cc1cc([N+](=O)[O-])ccc1NC(=O)CSc1nccn1C | inactive: -21.1%
O=C(CSc1cn(CC(=O)N2CCOCC2)c2ccccc12)Nc1ccccc1C(F)(F)F | inactive: -4.13%
CCOC(=O)CSc1nc2c([nH]c3ccccc32)c(=O)n1-c1ccc(OCC)cc1 | inactive: -11.1%
Cc1ccccc1C(=O)Nc1nc2c(s1)CC(C(C)(C)C)CC2 (stereo not given) | inactive: 5.92%
COc1ccc(-c2c(C)c3ccc(O)c(CN4CCN(C)CC4)c3oc2=O)cc1OC | inactive: -20.6%
COc1ccc2c(c1)c1c(c(=O)n(-c3cccc(Cl)c3)c(=O)n1C)n2C | inactive: -4.55%
Cc1cccc2sc(N(Cc3cccnc3)C(=O)C3CCCCC3)nc12 | inactive: -29%
COc1ccc(S(=O)(=O)c2cn(CC(=O)Nc3ccccc3)c3ccc(Cl)cc3c2=O)cc1 | inactive: -29%
O=C(CSc1nc2c([nH]c3ccccc32)c(=O)n1-c1ccc(F)cc1)N1CCCCCC1 | inactive: -14.4%
COc1ccc(Br)cc1CNC(=O)CCC(=O)N1CCSc2ccccc21 | inactive: -24.5%
O=C(Cn1cc(SCc2cccc(C(F)(F)F)c2)c2ccccc21)N1CCCCCC1 | inactive: -23.7%
COc1cccc2cc(-c3nc(-c4cccs4)no3)c(=O)oc12 | inactive: 0.646%
CN1C(=O)C2CCCCN2c2ccc(C(=O)NCc3ccccc3Br)cc21 (stereo not given) | inactive: 0%
COc1cc(NC(=O)CCc2c(C)nc3c(c(C)nn3-c3ccccc3)c2C)cc(OC)c1OC | inactive: -15.3%
CCOC(=O)c1c(C)c(C(=O)NCCc2ccc(OC)cc2)c(C)n1CC | inactive: -5.82%
CC(=O)c1c(C)n(-c2cccc(C)c2)c2ccc(OC(=O)COc3ccccc3)cc12 | inactive: -6.61%
COc1cccc(-c2cc(C(=O)NCCc3ccc(C)cc3)[nH]n2)c1 | inactive: -2.66%
Cc1ccc(NS(=O)(=O)c2c(C(=O)N3CCCCCC3)c(C)n(C)c2C)cc1F | inactive: -6.1%
CCOc1ccc(CNC(=O)Cn2nc(C)c3sc4ccccc4c3c2=O)cc1 | inactive: 3.67%
COc1ccc(C)cc1NC(=O)CN1C(=O)CCc2cc(S(=O)(=O)N3CCOCC3)ccc21 | inactive: -7.88%
Cc1ccc(C(c2sc3nc(-c4ccco4)nn3c2O)N2CCCCC2)cc1 (stereo not given) | inactive: -18%
CC(=O)c1ccc(NC(=O)CSc2nc(-c3ccccc3F)nc3c2c(=O)n(C)c(=O)n3C)cc1 | inactive: -13%
